From patent US20260042854A1, “ANTI-GLP-1R ANTIBODIES AND USES THEREOF” (SCIWIND BIOSCIENCES USA CO., LTD, priority 2022, published 2026)

Assays:
[1] = biological target: T1, extracellular domain of hGLP-1R (NP_002053.3, aa 24-145) (Homo sapiens, UniProt P43220); assay: ELISA binding of antibodies to the extracellular domain of hGLP-1R
T1 construct: hGLP-1R (NP_002053.3, aa 24-145); made in house
Method: The extracellular domain of hGLP-1R (NP_002053.3, aa 24-145) was expressed as a recombinant protein. An ELISA plate was coated with 10 μg/mL of hGLP-1R recombinant protein in PBS and incubated overnight at 4° C. The coating solution was removed thereafter and the plate was washed with PBST (PBS+0.05% Tween). Next, the plate was blocked with 1% BSA, washed with PBST, then added with 50 μL antibody (P16288 or P16289) of 6.7, 2.2, 0.44, 0.089, 0.018, 0.0036, 0.00071 or 0 nM, and incubated at room temperature for 60 minutes. After washed with PBST, the plate was added with horseradish peroxidase-labeled anti-human Fc antibody and incubated for 60 minutes. Then, after washed with PBST, the plate was added with TMB substrate for coloration, which was finally terminated by adding 0.5 M H2SO4. The absorbance was measured with microplate reader at 450 nm. The data were analyzed by four-parameter curve fitting with GraphPad Prism 9, and EC50 was calculated.

Mouse GLP-1R = biological target: T2, Mouse GLP-1R (Mus musculus, UniProt O35659); assay: cAMP HTRF antagonism assay in HEK293 transfected with mouse GLP-1R; format: cell-based
T2 construct: expressed in transfected cells; host or cells: HEK293 (ATCC, CRL-1573)
T2 sequence (O35659 22-463): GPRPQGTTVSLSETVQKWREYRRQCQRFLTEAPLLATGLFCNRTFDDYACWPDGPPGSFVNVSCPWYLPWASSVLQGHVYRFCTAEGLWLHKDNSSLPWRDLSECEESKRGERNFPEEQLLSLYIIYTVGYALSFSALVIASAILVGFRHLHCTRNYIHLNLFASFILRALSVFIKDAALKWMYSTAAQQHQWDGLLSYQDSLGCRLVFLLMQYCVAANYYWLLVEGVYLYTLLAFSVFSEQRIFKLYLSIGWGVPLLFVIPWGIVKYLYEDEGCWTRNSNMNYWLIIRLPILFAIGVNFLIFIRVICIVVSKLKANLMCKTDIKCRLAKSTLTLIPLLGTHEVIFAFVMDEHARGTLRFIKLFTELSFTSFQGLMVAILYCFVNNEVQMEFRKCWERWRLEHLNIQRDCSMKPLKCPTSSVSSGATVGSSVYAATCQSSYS
Method: (§1) HEK293 cells (ATCC, cat no. CRL-1573) were transfected with GLP-1R_pcDNA3.1/G418 (+) plasmids which can transcribe the mRNA of human (NM_002062.5), monkey (JN033215.1) and mouse (NM_021332.2) GLP-1R polypeptide. […] The plate was further incubated at 37° C. for 120 minutes. Finally, the CAMP level was measured with cAMP HTRF kit (Cisbio, 62AM4PEB). […] The data were analyzed by four-parameter curve fitting with GraphPad Prism 9, and IC50 was calculated.

hGLP-1R [2] = biological target: T3, hGLP-1R (Homo sapiens, UniProt P43220); assay: cAMP HTRF antagonism assay in HEK293 transfected with human GLP-1R; format: cell-based; design: expressed in transfected cells; host or cells: HEK293 (ATCC, CRL-1573)
Method: as §1

hGLP-1R [3] = biological target: T3, hGLP-1R; assay: hGLP-1R-CRE-Luciferase-HEK293 reporter gene assay (antagonism of GLP-1); format: cell-based; design: expressed in transfected cells; conditions: 2.5 ng/mL GLP-1, luciferase reporter
Method: HEK293 cells overexpressing hGLP-1R were transfected with a plasmid containing a luciferase expression cassette driven by multiple copies of cAMP response elements (CRE), to obtain a stably transfected hGLP-1R-CRE-Luciferase-HEK293 cell line containing the luciferase-expressing plasmid.
(§2) 100 μL of Bright-Glo reagent (Promega Corporation) was added, and the plate was tapped gently to facilitate the mixing of the solution. Chemiluminescence value was read with microplate reader after three minutes. […] The data were analyzed by four-parameter curve fitting with GraphPad Prism 9, and IC50 was calculated.
as §2

C57BL/6 mice = assay: IPGTT in C57BL/6 mice (exogenous GLP-1 added); format: in vivo, mouse; conditions: wildtype C57BL/6, single s.c. injection, GLP-1 25.0 nmol/kg i.p.
Method: 7-9-week-old male C57BL/6 mice (22-26 g) were assigned into 5 groups, with 5 mice in each group, and the mice in each group were treated according to the scheme shown in Table 6. The antibody treatment groups were given a single subcutaneous injection, and were fasted for 18 hours after the administration. […] The blood glucose levels of the mice before (0 min) and 15 min, 30 min. 60 min, 90 min, 120 min and 180 min after the administration of glucose were measured with blood glucose meter. The AUCs of the blood glucose-time curves of each mouse from 0 to 180 min were calculated with GraphPad Prism 9. The blood glucose levels and the AUCs were shown in Mean±SEM and the differences among groups were compared. Statistical differences were analyzed with One-way ANOVA. […] The significance markers were not shown in the line chart since they would overlap and be difficult to distinguish.

humanized GLP-1R mice = assay: OGTT in humanized GLP-1R mice (no exogenous GLP-1 added); format: in vivo, mouse; conditions: s.c. once a week x2 (P16288 200 or 400 nmol/kg, P16289 400 nmol/kg); OGTT Day 1 and Day 8
Method: 10-week-old male humanized GLP-1R mice (25-32 g) were assigned into 4 groups, with 5 mice in each group. The antibody treatment groups were subcutaneously injected with P16288 (200 nmol/kg), P16288 (400 nmol/kg) or P16289 (400 nmol/kg), respectively, and the vehicle group was subcutaneously injected with vehicle (PBS) once a week for 2 consecutive weeks. The first subcutaneous administration of antibody was on Day 0, and the second subcutaneous administration was on Day 7. OGTTs were performed on Day 1 and Day 8, and glucose solution (25%, w/v) was given to mice by oral administration at a dose of 13.9 mmol/kg. There was an 18-hour fasting period between the administration of the antibody and the oral administration of glucose solution. The blood glucose levels of the mice before (0 min) and 15 min, 30 min, 60 min, 90 min, 120 min and 180 min (or 240 min) after the administration of glucose were measured with blood glucose meter. The AUCs of the blood glucose-time curves of each mouse from 0 to 180 min (or 240 min) were calculated with GraphPad Prism 9. The blood glucose levels and the AUCs were shown in Mean±SEM and the differences among groups were compared. Statistical differences were analyzed with One-way ANOVA. As compared with the vehicle group, * stands for p<0.05; ** stands for p<0.01; *** stands for p<0.001; **** stands for p<0.0001; ns stands for no significance. […]

T1 sequence (P43220 24-145): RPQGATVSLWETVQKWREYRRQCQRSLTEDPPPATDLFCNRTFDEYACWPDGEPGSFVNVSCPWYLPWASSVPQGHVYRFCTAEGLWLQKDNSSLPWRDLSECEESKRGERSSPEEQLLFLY
T3 sequence (P43220 24-463): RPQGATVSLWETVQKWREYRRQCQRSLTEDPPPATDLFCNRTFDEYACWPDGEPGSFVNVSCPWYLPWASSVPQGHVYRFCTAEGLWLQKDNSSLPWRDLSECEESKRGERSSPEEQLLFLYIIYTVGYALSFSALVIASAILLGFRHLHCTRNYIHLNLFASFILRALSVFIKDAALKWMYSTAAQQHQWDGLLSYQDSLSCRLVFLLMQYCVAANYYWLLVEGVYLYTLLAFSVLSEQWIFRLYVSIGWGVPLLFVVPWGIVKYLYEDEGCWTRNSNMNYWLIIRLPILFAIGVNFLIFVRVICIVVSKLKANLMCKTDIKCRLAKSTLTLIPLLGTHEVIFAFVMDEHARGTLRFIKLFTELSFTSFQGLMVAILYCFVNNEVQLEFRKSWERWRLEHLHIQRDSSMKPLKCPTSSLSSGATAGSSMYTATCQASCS

B1: P16288: Fully human anti-GLP-1R IgG4 (S228P) antibody; heavy chain SEQ ID NO: 9, light chain SEQ ID NO: 10 (antibody)
heavy: QVQLVQSGAEMKKPGASVKVSCKTSGYRFSTYVISWVRQTPGQGLEWMGWISPYTGDIDYAQKFQGRVTITADESTSTAYMELSRLRSDDTAVYYCARERDGYNFPGMDVWGQGTTVTVSSASTKGPSVFPLAPCSRSTSESTAALGCLVKDYFPEPVTVSWNSGALTSGVHTFPAVLQSSGLYSLSSVVTVPSSSLGTKTYTCNVDHKPSNTKVDKRV[human IgG4 Fc with S228P (EU numbers) not listed]
light: DIQLTQSPSFLSASVGDRVTITCRASQGISSYLAWYQQKPGRAPKLLIYSASTLQRGVPSRFSGSGSGTDFTLTISSLQPEDYATYYCQQADSFPPSFGPGTKVDIKRTVAAPSVFIFPPSDEQLKSGTASVVCLLNNFYPREAKVQWKVDNALQSGNSQESVTEQDSKDSTYSLSSTLTLSKADYEKHKVYACEVTHQGLSSPVTKSFNRGEC
binding capability to the extracellular domain of hGLP-1R (in words) [1]: high ability of binding; also recorded: have binding capabilities | antagonism of activation of mouse GLP-1R by GLP-1 (in words) (Mouse GLP-1R): cannot antagonize the activation of mouse GLP-1R | IC50 (Mouse GLP-1R; 6 ng/ml GLP-1): > 10.2 µM | antagonism of activation of human GLP-1R by GLP-1 (in words) (hGLP-1R [2]): can antagonize the activation of human and monkey GLP-1R by GLP-1 at a similar level | antagonism of the activity of native GLP-1 at hGLP-1R (in words) (hGLP-1R [3]): antagonized by P16288 antibody in a dose-dependent manner | effect of antagonizing GLP-1 to raise blood glucose level (in words) (C57BL/6 mice): did not exhibit the effect of antagonizing GLP-1 to raise blood glucose level | effect of raising blood glucose level in OGTT (in words) (humanized GLP-1R mice): exhibited its effect of raising blood glucose level after both of the two administrations

“Also recorded” adds a separate entry of the source.
